In all, about 110,000 compounds were measured (“z-score”: median about -0.1, highest 2% from about 2 on). The list shows a part of the results. Activity calls are given as the source filed them.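 The calls were made as follows: active = z-score in the third read window above 3 or below -3; inactive = the rest.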
What follows are compounds tested against Metabotropic glutamate receptor 8 (Rattus norvegicus) (UniProt P70579) (assay: rat mGluR8 modulators via GIRK flux, primary screen, cell-based, thallium flux, HTS (AID 488969)). Settings: HEK293 rat mGluR8, GIRK (G protein-gated inwardly rectifying potassium channel) thallium flux, FluoZin2; at 10 µM; stronger effect = higher value; submaximal glutamate (EC20) added with thallium.
Chain of UniProt P70579 (P70579 whole entry, looked up): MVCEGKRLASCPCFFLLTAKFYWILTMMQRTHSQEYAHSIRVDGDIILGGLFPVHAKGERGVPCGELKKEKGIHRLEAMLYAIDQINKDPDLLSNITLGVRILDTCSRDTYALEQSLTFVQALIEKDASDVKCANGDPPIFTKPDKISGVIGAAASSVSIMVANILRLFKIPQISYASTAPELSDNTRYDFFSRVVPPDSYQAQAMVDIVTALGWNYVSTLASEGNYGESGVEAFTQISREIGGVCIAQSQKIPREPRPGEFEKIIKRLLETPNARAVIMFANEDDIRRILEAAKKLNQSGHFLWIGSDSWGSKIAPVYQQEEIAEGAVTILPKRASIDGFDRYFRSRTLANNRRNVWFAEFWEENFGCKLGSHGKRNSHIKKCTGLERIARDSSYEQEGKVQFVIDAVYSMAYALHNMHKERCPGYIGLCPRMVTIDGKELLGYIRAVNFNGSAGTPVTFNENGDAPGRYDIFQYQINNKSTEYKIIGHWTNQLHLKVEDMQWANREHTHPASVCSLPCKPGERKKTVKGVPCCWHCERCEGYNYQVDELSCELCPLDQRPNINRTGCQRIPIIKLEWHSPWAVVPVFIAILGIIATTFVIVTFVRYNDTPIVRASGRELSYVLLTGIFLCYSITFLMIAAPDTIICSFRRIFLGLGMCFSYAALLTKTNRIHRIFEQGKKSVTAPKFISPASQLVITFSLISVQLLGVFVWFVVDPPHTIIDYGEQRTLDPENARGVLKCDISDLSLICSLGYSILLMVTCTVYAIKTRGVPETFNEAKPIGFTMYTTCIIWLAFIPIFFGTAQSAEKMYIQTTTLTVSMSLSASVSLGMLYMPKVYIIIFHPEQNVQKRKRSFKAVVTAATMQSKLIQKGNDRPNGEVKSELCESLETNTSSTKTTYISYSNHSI

Compound	z-score
O=C(Nc1cccc([N+](=O)[O-])c1)c1ccc2c(c1)OCCO2	-0.11
COc1cccc(-c2ccc(-c3noc(-c4ccccc4F)n3)c(OC)n2)c1	0.0189
O=C(NCCO)C1(c2ccccc2)CCCC1	0.764
CCCC(C)NS(=O)(=O)c1ccccc1 (stereo not drawn)	-0.232
CCCc1nc(SCc2ccccn2)c2c(=O)n(C)c(=O)n(C)c2n1	-2.21
CC(NC(=O)c1cccc(C(F)(F)F)c1)C1CCCO1 (stereo not drawn)	0.45
CN(CCOCCOc1ccc2ccccc2c1)Cc1ccccc1	1.96
COc1ccc(NC(=O)Cn2nc(Cc3cccnc3)c3ccccc3c2=O)cc1OC	-1.21
O=C(O)c1oc2ccccc2c1-n1cccc1	-1.47
COC(=O)c1noc(-c2ccc(C)cc2)n1	-1.31
CC1CCC(N2CC(=O)N(Cc3ccc4c(c3)OCO4)C(c3ccc(F)cc3)C2=O)CC1 (stereo not drawn)	0.0939
CCCCOc1cccc(C(=O)NC(=S)Nc2cccc(C(F)(F)F)c2)c1	1.84
COc1ccc(/C=C/C(=O)NCc2c(C)nn(C)c2C)cc1COc1ccc(Br)cc1	-0.131
COc1ccc(C(=O)NCc2ccc3c(c2)OCO3)cc1S(=O)(=O)NCc1ccc(Cl)cc1	0.0295
CN1CCN(C(=S)c2ccc(Br)cc2)CC1	-0.156
O=C(CSc1nc2ccc(NC(=O)CSc3nnnn3Cc3ccccc3)cc2s1)Nc1ccccc1	-1.26
CC(C)CC(NC(=O)COc1ccccc1)C(=O)O (stereo not drawn)	-0.0932
O=C(CCCCn1c(=O)c2ccccc2n(CC(=O)Nc2ccccc2)c1=O)NCc1ccco1	-0.216
CO/C([O-])=N/c1c[n+](-c2ccc(C)cc2)no1	-0.0197
CC1CCc2cc(F)ccc2N1C(=O)c1ccncc1 (stereo not drawn)	-0.15
O=C(O)c1nn(-c2ccccc2)ccc1=O	-0.459
CCCCC(=O)Nc1nc(C)c(-c2csc(Nc3cc(Cl)ccc3OC)n2)s1	-0.0989
CC1CCCN(Cc2nc3c(c(=O)n(C)c(=O)n3C)n2CCCc2ccccc2)C1 (stereo not drawn)	-2.08
CCCCOC(=O)c1ccc(NC(=O)C(=O)NCc2ccncc2)cc1	0.0391
O=C(Nc1ccccn1)c1cccnc1	0.383

Compound	z-score
CC1(C)C(C=C(Cl)Cl)C1C(=O)N1CCN(c2ccccc2)CC1 (stereo not drawn)	-0.224
O=C(COc1ccccc1)N(CCc1ccccc1)c1nc(-c2ccc(F)cc2)cs1	0.0115
CCOc1ccc(NC(=O)C2CC=CCC2C(=O)O)cc1 (stereo not drawn)	0.174
COc1cc(C(C)=O)ccc1Oc1ncnc2c1cnn2-c1ccc(F)cc1	-0.132
CSc1cccc(NC(C)=O)c1	-0.179
O=S(=O)(CCSc1nc2ccccc2o1)c1nc2ccccc2s1	-1.13
CCOC(=O)CNS(=O)(=O)c1c(C)noc1C	-0.188
O=C1CCCN1c1ccc(Br)cc1	-0.00112
O=C(CCNc1ccc(F)cc1)c1cccc([N+](=O)[O-])c1	0.0284
CC(=O)Nc1cccc(-c2nnc(SCC(=O)n3c4c(c5ccccc53)CCCC4)n2C)c1	-0.889
O=C1CC(c2ccccc2)n2nc(NC(=O)c3cccs3)nc2N1 (stereo not drawn)	0.0259
O=C(c1ccc(NS(=O)(=O)c2ccccc2)cc1)N1CCN(Cc2ccc3c(c2)OCO3)CC1	0.0447
COC(=O)NCC(c1cccnc1)N1CCOCC1 (stereo not drawn)	-0.0687
CN(C)S(=O)(=O)Oc1ccsc1C(=O)Nc1ccc(Cl)cc1	-0.79
CCC1(C)N=c2c(c(=O)n(C)c(=O)n2C)=NO1 (stereo not drawn)	-0.0703
CC(C)(C)SCCNC(=O)c1ccc(Cl)c(S(=O)(=O)N2CCOCC2)c1	0.258
O=C(CN1CCN(c2ncccn2)CC1)NCCC1=CCCCC1	0.402
Cc1nn(-c2ccccc2)c(C)c1C(=O)OCC(=O)Nc1ccc2c(c1)OCO2	-0.464
Cc1ccc(CCN2CC(C(=O)NCCCOC(C)C)CC2=O)cc1 (stereo not drawn)	-0.0457
COc1ccc(-c2nc(-n3c(C)c(C(C)=O)c(C(C)=O)c3C)sc2C)cc1OC	-0.504
O=C(NNC1=NCCC1)c1cccc(Br)c1	0.433
Cc1noc(C)c1S(=O)(=O)N1CCC(C(=O)N2CCN(C3CCCC3)CC2)CC1	-0.239
COc1ccc(/C(O)=C2/C(=O)C(=O)N(CCCN(C)C)C2c2cccc(Cl)c2)cc1OC (stereo not drawn)	0.0765
COc1cc2c(cc1NC(=O)C(C)OC(=O)/C=C/c1ccc(OC(F)F)cc1)oc1ccccc12 (stereo not drawn)	-0.0559
O=C(COC(=O)Cc1ccsc1)Nc1ccc(S(=O)(=O)N2CCOCC2)cc1	0.284

Compound	z-score
CNC(=S)N1CCN(C(=O)c2ccco2)CC1	2.05
Cc1nn(C)c(C(=O)N/N=C/c2ccccc2)c1[N+](=O)[O-]	-0.216
Cc1ccccc1NC(=S)NCC(c1cccnc1)N1CCOCC1 (stereo not drawn)	-0.0608
CCOC(=O)C(C(=O)NCc1cccc(OC)c1)c1ncc(C(F)(F)F)cc1Cl (stereo not drawn)	1.13
COc1ccc(NC(=O)CSc2nnc(N)s2)cc1	-0.131
COc1cc(/C=N/NC(N)=O)cc(Br)c1OCc1ccccc1C	0.308
O=C(c1ccccc1)N1CN2CN(C(=O)c3ccccc3)CC([N+](=O)[O-])(C2)C1	0.182
COc1ccc(C(=O)COC(=O)CCN2C(=O)C3C4CC(C(Br)C4Br)C3C2=O)cc1 (stereo not drawn)	0.166
N#Cc1c(SCC(N)=O)nsc1SCc1ccccc1Cl	1.08
CCCC(C)NC(=O)c1ccc(C2SCC(=O)N2Cc2ccco2)cc1 (stereo not drawn)	0.33
Cc1cnnc2c1-c1nonc1CC2	0.154
c1ccc2[nH]c(SCc3cscn3)nc2c1	0.00573
CCOC(=O)c1ccoc1CSCc1ccc(C(=O)OC)o1	-0.112
COc1ccc(OC)c(CNC(=O)C2CCCN(C(=O)N(C)C)C2)c1 (stereo not drawn)	0.0878
O=C(C1CCN(S(=O)(=O)c2cnc[nH]2)CC1)N1CCN(c2ncccn2)CC1	0.334
C=CCNCCCOc1ccc(C)cc1Br	0.425
CCCCOc1ccc(-n2nc(C)cc2C)nn1	-0.141
O=C(NC1CC1)c1ccc(CSCc2cccc(F)c2)o1	active: 4.11
Cc1ccc(C)c(-n2c(Cc3cc(=O)[nH]c(=O)[nH]3)nnc2SCC(=O)NCc2ccco2)c1	-0.506
O=C(C1COc2ccccc2O1)N1CCOCC1 (stereo not drawn)	-0.532
O=S(=O)(Nc1ccc2c(c1)OCCO2)c1ccc2oc3ccccc3c2c1	1.03
CCCCSc1nc2c(cnn2-c2ccc(C)c(C)c2)c(=O)[nH]1	0.044
CCOC(=O)N1CCN(C(=O)C(C)SCc2ccccc2)CC1 (stereo not drawn)	0.101
